Assay results from paper PMC4336329 (PLoS ONE, 2015).
Hit rate of the full screen: of about 310,000 compounds, about 2,200 (0.71%) showed an effect of 50% or more. The effect is printed as a negative number. The list shows a part of the results.

target: human ether-à-go-go-related gene (hERG) potassium channel (human, UniProt Q12809); assay: primary screen, population patch clamp on CHO cells stably expressing hERG
Sequence (Q12809 whole entry, looked up): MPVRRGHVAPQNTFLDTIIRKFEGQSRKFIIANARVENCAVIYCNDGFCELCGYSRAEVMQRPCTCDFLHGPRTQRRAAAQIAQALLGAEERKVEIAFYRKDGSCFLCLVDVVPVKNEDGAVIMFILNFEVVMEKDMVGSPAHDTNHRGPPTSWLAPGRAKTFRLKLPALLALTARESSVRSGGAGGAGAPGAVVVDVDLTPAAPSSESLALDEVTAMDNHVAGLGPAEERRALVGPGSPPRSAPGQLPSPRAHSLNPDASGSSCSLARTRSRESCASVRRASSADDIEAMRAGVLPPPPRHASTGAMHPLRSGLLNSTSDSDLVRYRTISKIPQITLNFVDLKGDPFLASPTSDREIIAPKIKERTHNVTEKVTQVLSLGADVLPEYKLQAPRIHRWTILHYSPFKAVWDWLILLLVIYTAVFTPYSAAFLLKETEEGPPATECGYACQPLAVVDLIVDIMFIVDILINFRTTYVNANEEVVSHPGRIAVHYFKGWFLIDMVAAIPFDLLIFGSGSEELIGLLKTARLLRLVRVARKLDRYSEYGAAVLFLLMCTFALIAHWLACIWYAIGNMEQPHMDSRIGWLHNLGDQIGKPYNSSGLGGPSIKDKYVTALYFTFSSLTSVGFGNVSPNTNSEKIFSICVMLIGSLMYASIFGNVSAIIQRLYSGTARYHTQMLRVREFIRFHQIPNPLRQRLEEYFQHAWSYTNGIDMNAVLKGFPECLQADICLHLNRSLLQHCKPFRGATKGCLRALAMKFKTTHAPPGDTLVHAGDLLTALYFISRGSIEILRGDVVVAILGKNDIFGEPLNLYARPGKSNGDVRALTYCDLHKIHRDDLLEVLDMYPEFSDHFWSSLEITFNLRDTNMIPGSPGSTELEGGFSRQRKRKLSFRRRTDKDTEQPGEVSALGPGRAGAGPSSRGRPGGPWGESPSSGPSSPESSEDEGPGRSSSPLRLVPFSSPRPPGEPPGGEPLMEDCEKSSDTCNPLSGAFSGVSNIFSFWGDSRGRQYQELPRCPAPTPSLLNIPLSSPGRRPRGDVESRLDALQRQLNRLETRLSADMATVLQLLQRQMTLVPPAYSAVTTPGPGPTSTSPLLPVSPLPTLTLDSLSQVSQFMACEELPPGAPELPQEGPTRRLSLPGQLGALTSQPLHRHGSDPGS

| Structure (SMILES) | hERG current change (%, negative = inhibition) at 1uM [%] |
| --- | --- |
| CCNc1nc(C23CC4CC(CC(C4)C2)C3)cs1.Cl | 10.1 |
| O=C(CCc1nc(-c2ccccc2F)no1)NC1CCCCCC1 | 1.09 |
| CCOc1nc(-c2ccncc2)nc2ccccc12 | -1.42 |
| COc1ccc(CNC(=O)/C=C/c2ccc3[nH]cc(CCN(C)C)c3c2)cc1 | 9.89 |
| Cc1ccc(-c2ncns2)cc1 | 2.37 |
| O=C(COC(=O)Cc1ccc2c(c1)OCCO2)Nc1ccc(S(=O)(=O)N2CCCC2)cc1 | 9.55 |
| CCCn1c(N2CCN(C)CC2)nc2c1c(=O)[nH]c(=O)n2C | 8.02 |
| CCn1cc(CN2CCCC(C(=O)c3ccc(-c4ccccc4)cc3)C2)cn1 (stereo not drawn) | 8.04 |
| COc1cc(-c2nnc(SCC(=O)N(Cc3ccccc3)C(C)(C)C)o2)cc(OC)c1OC | 7.12 |
| COc1ccc(C2CC(=O)c3cnc(N4CCc5ccccc54)nc3C2)cc1OC (stereo not drawn) | 11.8 |
| O=C(COC(=O)COc1ccccc1Cl)Nc1ccccc1OC(F)F | 17.7 |
| O=C(N/N=C/c1c[nH]c2ccccc12)c1cccc(O)c1 | 18.4 |
| COc1ccc(-c2nn(CCC(=O)O)cc2/C=C2\SC(N)=NC2=O)cc1OC | 11 |
| COCC1CCCN(C(=O)c2cc(COc3cccc4cccnc34)on2)C1 (stereo not drawn) | 7.44 |
| O=C(NCCc1ccc(Cl)cc1)C1CCN(S(=O)(=O)c2cccs2)CC1 | 5.64 |
| CNC(=O)c1cc2c(s1)CCCCCC2 | -0.352 |
| CCOC(=O)c1cc2c(ccn2C)n1Cc1ccc(Cl)cc1 | 10.5 |
| C=CCn1c(CNC(=O)c2cccs2)nnc1SCc1ccc(Cl)cc1Cl | 1.12 |
| CC(C)N(CCCNC(=O)Cn1c(=O)c2cccn2c2ccccc21)Cc1ccccc1 | -12.2 |
| Cc1noc(C)c1COC(=O)CCN1c2ccccc2Sc2ccccc21 | 12.9 |
| CN(Cc1ccccc1)C(=O)C1CCN(S(=O)(=O)c2ccc3nc4c(c(C(=O)O)c3c2)CCCC4)CC1 | 0.217 |
| Cc1cccc(C)c1OCC(=O)N/N=C/c1ccncc1 | 10.8 |
| COc1ccc(OC)c(NC(=O)C2CCCN(S(=O)(=O)c3c(C)noc3C)C2)c1 (stereo not drawn) | -1.52 |
| CCSc1nnc(NC(=O)CSc2nc3c(c(=O)n2CC)SC(C)C3)s1 (stereo not drawn) | 11 |
| NC(=O)C1CCN(C(=O)c2cn(-c3ccccc3)nc2-c2cccnc2)CC1 | 7.62 |
| COc1ccc(/C=C/C2=CC(C)(C)NC(=S)N2)cc1OC | 19.9 |
| Cc1ccc(S(=O)(=O)N(CCO)Cc2ccccc2)cc1 | 6.57 |

| Structure (SMILES) | hERG current change (%, negative = inhibition) at 1uM [%] |
| --- | --- |
| Cc1cccc(NC(=O)c2cc3c([nH]c4ccccc43)c(C)n2)c1C | 11.3 |
| O=C(CNC(=O)OCc1ccccc1)NC1CCCCNC1=O (stereo not drawn) | 14.1 |
| COc1ccc(C(=O)Nc2ccc(N3CCN(C(=O)c4ccccc4)CC3)cc2)cc1[N+](=O)[O-] | 2.67 |
| CCOC(=O)c1ccc(N2C(=O)c3n[nH]c(-c4ccco4)c3C2c2cccc([N+](=O)[O-])c2)cc1 (stereo not drawn) | -5.23 |
| O=C(CN(c1ccc2c(c1)OCCO2)S(=O)(=O)c1ccccc1)NCc1ccc(Cl)cc1 | 9.51 |
| Cc1csc(NC(=O)CSCc2c(C)noc2C)n1 | 8.44 |
| Fc1ccc2c(c1)C(c1ccncc1)=NNC(c1cccnc1)=N2 | 3.07 |
| CCCCCSc1ncccc1C(=O)O | 18.8 |
| NC(=O)CC(NC(=O)c1cccc(Br)c1)c1ccc(N2CCN(c3ccccn3)CC2)c([N+](=O)[O-])c1 (stereo not drawn) | 7.47 |
| CCN1CCN(c2cc(C)c3cc(NC(=S)N4CCCCC4)ccc3n2)CC1 | 0.276 |
| CC(=O)N1CCN(c2nnc(-c3ccccc3)c3ccccc23)CC1 | 11 |
| Cc1ccccc1NC(=O)C(C)c1ccc(-c2ccccc2)c(F)c1 (stereo not drawn) | -1.72 |
| Cc1ccc2c(c1)c1c3n2CCN(C(=O)CCl)C3CCC1 (stereo not drawn) | 12.2 |
| Br.N=C1c2ccccc2CN1NC(=O)c1cccc(S(=O)(=O)N2CCCCC2)c1 | 14.5 |
| C#CCOCCOCCOCCNc1nc(N2CCN(C(=O)C(Cc3ccc(O)cc3)n3cc(C(N)CC(C)C)nn3)CC2)nc(N2CCN(C(=O)C(Cc3cc4ccccc4[nH]3)n3cc(C(N)C(C)CC)nn3)CC2)n1.Cl (stereo not drawn) | 10.3 |
| NS(=O)(=O)c1ccc(CNC(=O)c2ccc(Cl)cc2[N+](=O)[O-])cc1 | 3.89 |
| Cc1cccc(-n2cc(CN3CCN(C(=O)c4ncn[nH]4)CC3)c(-c3cccc(F)c3)n2)c1 | 12.3 |
| CN(C)c1cccc(C(=O)NC2CCCc3ccccc32)c1 (stereo not drawn) | 11.3 |
| Cc1oc2ccc(O)c(CN(C)C)c2c1C(=O)c1ccccc1 | -2.23 |
| CCC(C(=O)O)N1C(=O)c2ccccc2C1=O (stereo not drawn) | 8.49 |
| CC(C)NC(=O)c1ccc(N(Cc2ccc(Cl)cc2)S(C)(=O)=O)cc1 | 6.42 |
| Cc1nc(SCC(=O)c2ccccc2)[nH]c(=O)c1Oc1ccc(Cl)cc1 | 20.9 |
| CCCC(=O)NC(Nc1ccccc1F)C(Cl)(Cl)Cl (stereo not drawn) | 1.86 |
| COC(=O)Cc1[nH]nc2c1C(c1c[nH]c3ccccc13)C(C#N)=C(N)O2 (stereo not drawn) | 17.1 |
| O.O=c1c(O)c(-c2ccc(O)c(O)c2)oc2cc(O)cc(O)c12 | 18.6 |
| Clc1ccc(/C=C/c2nc(Cl)c(-c3ccc(Cl)cc3)c(Cl)n2)cc1 | 7.01 |
| O=C1c2ccccc2NC(c2ccc(Cl)cc2Cl)N1Cc1ccccc1 (stereo not drawn) | -5.12 |
